Among all 420,000 compounds or so, about 64,000 (15%) were called active. Inconclusive means that the source gave no clear call. Such entries were picked first, then a sample of the others. The call rests on the fitted dose curve; in most records, active means well fitted inhibition curve with a large enough effect; inconclusive means small, poorly fitted or top-dose-only effect; inactive means flat fitted curve, though single readings scatter. No potency is given beside an inconclusive call; the fits are too rough.
assay: qHTS for Inhibitors of human tyrosyl-DNA phosphodiesterase 1 (TDP1): qHTS in cells in absence of CPT; details: DT40 Tdp1-/- hTDP1 cells, no CPT, ATP luminescence, 48 h; activity change, negative = growth inhibition: at 46.2 µM (top of the series) unless noted; further: nearly all actives have a fitted effect of over 55% in size
Summary of the method: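 Stably hTDP1-transfected Tdp1-null chicken DT40 cells were treated with library compounds minus camptothecin and grown for at least 48 hr at 37 °C, after which cellular ATP was quantified by luminescence.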
On the % scale 0 is the no-effect control and ±100 the full control effect; potency means the concentration at half of the fitted maximal effect; tags describe the fitted curve by direction and shape.

**Q.** Which Potency does the source give for COc1ccc(OC)c(CCNC(=O)c2ccc3c(c2)N(Cc2ccc(F)cc2)CCS3)c1 here?
**A.** The Potency was inconclusive [inhibitor, single point].

**Q.** With O=S(=O)(/N=C(/Nc1ccc(Cl)c(S(=O)(=O)N2CCOCC2)c1)c1ccc(F)cc1)c1ccccc1 as the compound, how does the Potency read?
**A.** The Potency was inconclusive [inhibitor, single point].

**Q.** With COc1ccc(-c2nc3cnc(N4CCNCC4)nc3n(-c3ccc(OC)cc3)c2=O)cc1 as the compound, how does the Potency read?
**A.** The Potency was inconclusive [inhibitor, single point].

**Q.** For COc1cc(NC(=O)c2ncn(-c3ccccc3)n2)cc(OC)c1, which Potency is on record?
**A.** The Potency was inconclusive [inhibitor, single point].

**Q.** For CC(C)C(C(=O)N1CCN(Cc2ccccc2)CC1)c1ccccc1 (centres undefined), which activity change, negative = growth inhibition is on record?
**A.** Its activity change, negative = growth inhibition is inconclusive: -38% [inhibitor].

**Q.** With Cc1nnc(C)n1/N=C/c1cc(Br)cc(Br)c1O as the compound, how does the Potency read?
**A.** Its Potency is “inactive”.

**Q.** For CC1=C(C(=O)Nc2ccccc2)C(c2cccc([N+](=O)[O-])c2)Nc2nc3ccccc3n21 (centres undefined), which Potency is on record?
**A.** The Potency was inconclusive [inhibitor, single point].

**Q.** Which Potency does the source give for CC(=O)c1ccc(NC(=O)CSc2nccn2Cc2ccc3c(c2)OCO3)cc1 here?
**A.** Its Potency is inconclusive [inhibitor, single point].

**Q.** Which Potency does the source give for N#C/C(=C/c1ccc(Cl)cc1)NC(=O)c1ccccc1 here?
**A.** Its Potency is inconclusive [inhibitor, single point].

**Q.** With CC(=O)OCc1cc(-c2nc3ccccc3[nH]c2=O)nn1-c1ccc(Cl)cc1 as the compound, how does the Potency read?
**A.** Its Potency is inconclusive [inhibitor, single point].

**Q.** With Cc1cccc(NC(=O)CSc2ncnc3sc(C)cc23)c1 as the compound, how does the Potency read?
**A.** Its Potency is “inactive”.

**Q.** For O=C1c2ccccc2C(=O)N1CCCCN(C(=O)c1cc([N+](=O)[O-])ccc1Cl)c1ccc(Cl)cc1, which Potency is on record?
**A.** Its Potency is inconclusive [inhibitor, single point].

**Q.** With CC(Oc1ccc2c3c(c(=O)oc2c1)CCCC3)C(=O)NCc1ccncc1 (centres undefined) as the compound, how does the Potency read?
**A.** Its Potency is inconclusive [inhibitor, single point].

**Q.** Which Potency does the source give for CCOc1ccccc1N1CCN(C(=O)C2=CC=CN3CCS(=O)(=O)N=C23)CC1 here?
**A.** The Potency was inconclusive [inhibitor, partial curve, poor fit].

**Q.** For O=C(CSc1nnc2c(n1)[nH]c1ccccc12)Nc1cccc(S(=O)(=O)N2CCOCC2)c1, which Potency is on record?
**A.** Its Potency is inconclusive [inhibitor, single point].

**Q.** For COCCCNC(=O)c1ccc2c(c1)ncn2-c1ccc(C)cc1C, which Potency is on record?
**A.** Its Potency is “inactive”.

**Q.** With CCSc1cc(Cl)nc(N)n1 as the compound, how does the Potency read?
**A.** Its Potency is “inactive”.

**Q.** Which Potency does the source give for CC1(C(=O)Nc2cccc(C#N)c2)CCN1C(=O)CCc1ccccc1 (centres undefined) here?
**A.** Its Potency is inconclusive [inhibitor, single point].

**Q.** With COc1ccc(CCNC(=O)CSc2c[nH]c3ccccc23)cc1OC as the compound, how does the Potency read?
**A.** The Potency was inconclusive [inhibitor, single point].

**Q.** Which Potency does the source give for Cc1ccc(C(C)C)c(OCc2nnc3n2CCCCC3)c1 here?
**A.** Its Potency is inconclusive [inhibitor, single point].

**Q.** With COc1cc(-c2nc3cccc(C)n3c2NCC2CCCO2)ccc1O (centres undefined) as the compound, how does the Potency read?
**A.** Its Potency is inconclusive [inhibitor, single point].

**Q.** With CCOC(=O)c1nn(-c2ccccc2F)c(-c2ccccc2)c1C(=O)c1ccccc1 as the compound, how does the Potency read?
**A.** Its Potency is inconclusive [inhibitor, single point].

**Q.** For CC#CCN(Cc1ccco1)C(=O)C1CCC(=O)N(Cc2ccccc2F)C1 (centres undefined), which Potency is on record?
**A.** Its Potency is inconclusive [inhibitor, single point].

**Q.** Which Potency does the source give for CCc1sc(C(=O)Nc2ccc(N3CCOCC3)cc2)cc1C here?
**A.** The Potency was inconclusive [inhibitor, single point].

**Q.** For O=c1c2cnn(-c3ccccc3)c2nc(-c2cccs2)n1-c1cccc(Cl)c1, which Potency is on record?
**A.** Its Potency is active: 9.2 µM.

**Q.** With CC(C)(C)n1nnnc1C(c1cccs1)N(Cc1ccccc1)Cc1cccnc1 (centres undefined) as the compound, how does the Potency read?
**A.** Its Potency is active: 25.9 µM.

**Q.** With Cc1ccc(-n2nc3c(c2NC(=O)C(C)C)CS(=O)(=O)C3)c(C)c1 as the compound, how does the Potency read?
**A.** Its Potency is “inactive”.

**Q.** With CCCCN(CC)CCCNC(=O)c1cn(CC)c2ccc(S(=O)(=O)N3CCOCC3)cc2c1=O as the compound, how does the Potency read?
**A.** The Potency was “inactive”.

**Q.** Which Potency does the source give for CCOc1ccc(-c2noc(-c3cccnc3)n2)cc1OC here?
**A.** The Potency was inconclusive [inhibitor, partial curve].

**Q.** For CC(C)(C)C(=O)NC1(C(F)(F)F)NC(=O)N(Cc2ccccc2)C1=O (centres undefined), which Potency is on record?
**A.** The Potency was “inactive”.

**Q.** With Cc1nn(C)cc1/C=C/C(=O)c1ccc(O)cc1 as the compound, how does the Potency read?
**A.** Its Potency is inconclusive [inhibitor, partial curve].

**Q.** For CCOc1ccccc1-n1nnc(S(=O)(=O)c2ccc(C)cc2)c1N, which Potency is on record?
**A.** The Potency was active: 11.6 µM.

**Q.** Which Potency does the source give for Cc1ccc(NC(=O)COC(=O)c2c[nH]c3ccccc23)cc1C here?
**A.** Its Potency is “inactive”.

**Q.** With CCCOC1CCCN(C(=O)c2cc(COc3ccc(-n4cncn4)cc3)on2)C1 (centres undefined) as the compound, how does the Potency read?
**A.** Its Potency is inconclusive [inhibitor, single point].

**Q.** For O=C1c2ccccc2C(=O)C12Cc1ccccc1N1CCN(c3ccccc3)CC12 (centres undefined), which Potency is on record?
**A.** The Potency was inconclusive [inhibitor, single point].

**Q.** With COc1ccc(C2N3CC4(C)CN2CC(c2ccccc2)(C3)C4=O)cc1 (centres undefined) as the compound, how does the Potency read?
**A.** The Potency was inconclusive [inhibitor, single point].

**Q.** With Cc1ccc(NC(=O)c2nc(-c3ccncc3)no2)c(Cl)c1 as the compound, how does the Potency read?
**A.** The Potency was “inactive”.

**Q.** With COc1ccc(-c2nn(-c3ccccc3)cc2/C=C/C(=O)OCC(=O)Nc2cccc(C#N)c2)cc1 as the compound, how does the Potency read?
**A.** The Potency was inconclusive [inhibitor, partial curve].

**Q.** For O=C(Nc1ccc2[nH]c(=O)[nH]c2c1)c1ccc([N+](=O)[O-])o1, which Potency is on record?
**A.** The Potency was “inactive”.

**Q.** With Cc1cc(C)nc(SCc2nnc(SCC(=O)N3CCCc4ccccc43)o2)n1 as the compound, how does the Potency read?
**A.** Its Potency is inconclusive [inhibitor, single point].

**Q.** With O=C(c1ccc(CS(=O)(=O)c2ccc(Br)cc2)o1)N1CCCCCC1 as the compound, how does the Potency read?
**A.** Its Potency is inconclusive [inhibitor, single point].

**Q.** Which Potency does the source give for Clc1ccc(Cl)c(-c2nn3c(COc4ccccc4)nnc3s2)c1 here?
**A.** The Potency was inconclusive [inhibitor, single point].

**Q.** For Cc1cnc(CN(C)C(=O)C2CCC(=O)N(CCc3ccc(Cl)cc3)C2)[nH]1 (centres undefined), which Potency is on record?
**A.** The Potency was “inactive”.

**Q.** With Cn1c(=O)cc(SCC(=O)NCCCN2CCN(c3ccccc3F)CC2)c2ccccc21 as the compound, how does the Potency read?
**A.** Its Potency is inconclusive [inhibitor, single point].

**Q.** For CC(=O)NCCNc1ncncc1-c1ccc(N(C)C)cc1, which Potency is on record?
**A.** Its Potency is inconclusive [inhibitor, partial curve, poor fit].

**Q.** For CCN(CC)C(=O)c1cccc(-c2csc(C(C)(O)c3cccc(OC)c3)n2)c1 (centres undefined), which Potency is on record?
**A.** Its Potency is active: 23.1 µM.

**Q.** For COc1ccc(-c2cc(C(=O)N(C)Cc3ccc(F)cc3)c3ccccc3n2)cc1OC, which Potency is on record?
**A.** The Potency was inconclusive [inhibitor, single point].

**Q.** For CCOc1ccccc1NC(=O)N1CCC(NC(=O)c2ccccc2C)CC1, which Potency is on record?
**A.** Its Potency is “inactive”.

**Q.** With CC1CCCCC1NC(=O)c1cc2ccccc2o1 (centres undefined) as the compound, how does the activity change, negative = growth inhibition read?
**A.** Its activity change, negative = growth inhibition is inconclusive: -38% [inhibitor].

**Q.** Which Potency does the source give for CCCNC(=O)C1(CC2CC(c3ccccc3)=NO2)CCN(C(=O)Cc2ccc(F)cc2)CC1 (centres undefined) here?
**A.** Its Potency is inconclusive [inhibitor, partial curve].

**Q.** Which Potency does the source give for CCOc1ccc(NC(=O)CN2CCN(c3ccc(Cl)cc3)CC2)cc1 here?
**A.** The Potency was inconclusive [inhibitor, single point].

**Q.** Which Potency does the source give for Cc1ccc(-n2nc3c(=O)n(C(C)C(=O)NCc4ccc(Cl)cc4)nc(C)c3c2C)cc1 (centres undefined) here?
**A.** The Potency was “inactive”.

**Q.** For COc1cc(C(O)c2nc(-c3ccncc3)cs2)ccc1F (centres undefined), which Potency is on record?
**A.** Its Potency is active: 23.1 µM.

**Q.** With O=C(CCC1CCCN(C(=O)c2cccs2)C1)N1CCN(c2ccccn2)CC1 (centres undefined) as the compound, how does the Potency read?
**A.** Its Potency is inconclusive [inhibitor, single point].

**Q.** With Cc1ccccc1Nc1nc(N)nc(COC(=O)C2CCCCC2)n1 as the compound, how does the Potency read?
**A.** Its Potency is “inactive”.

**Q.** With COc1ccc(C(O)c2nc(/C=C/c3ccc(C(F)(F)F)cc3)cs2)cc1 (centres undefined) as the compound, how does the Potency read?
**A.** Its Potency is inconclusive [inhibitor, partial curve].

**Q.** For O=C1C2CSCN2C(=O)CN1CCCN1CCN(C(c2ccccc2)c2ccccc2)CC1 (centres undefined), which Potency is on record?
**A.** Its Potency is inconclusive [inhibitor, single point].

**Q.** For c1ccc2sc(N3CCCN(Cc4nc(-c5cnccn5)no4)CC3)nc2c1, which Potency is on record?
**A.** The Potency was inconclusive [inhibitor, single point].

**Q.** For COc1ccc(OC)c(CCNC(=O)c2cc3c(=O)n(C)c4ccccc4c3n2C)c1, which Potency is on record?
**A.** Its Potency is active: 23.1 µM.

**Q.** Which activity change, negative = growth inhibition does the source give for CC1(C)C/C(=N\O)c2cc3c(nc2C1)CCCC3 here?
**A.** The activity change, negative = growth inhibition was inconclusive: -31.3% [inhibitor].

**Q.** Which Potency does the source give for CN1c2ccsc2/C(=N/NC(=O)c2c(F)cccc2F)CS1(=O)=O here?
**A.** Its Potency is “inactive”.

**Q.** With O=C(c1cc(F)cc(F)c1)N1CCC(c2nc(-c3ccc(S(=O)(=O)N4CCCC4)cc3)no2)CC1 as the compound, how does the Potency read?
**A.** Its Potency is inconclusive [inhibitor, single point].

**Q.** With O=C(COc1ccccc1-c1ccccc1)NNC(=O)NC1CCCCC1 as the compound, how does the Potency read?
**A.** Its Potency is inconclusive [inhibitor, partial curve].

**Q.** For c1ccc2c(Nc3ccc4c(c3)OCCO4)c3c(nc2c1)CCC3, which Potency is on record?
**A.** The Potency was active: 14.6 µM.

**Q.** For CS(=O)(=O)c1ccc(CNC(=O)[C@]2(C(F)(F)F)C[C@H](CCc3ccccc3)CCCO2)cc1, which Potency is on record?
**A.** The Potency was inconclusive [inhibitor, single point].

**Q.** With CCN(C(=O)CN1C(=O)NC2(CCC(C)CC2)C1=O)C1CCCCC1 (centres undefined) as the compound, how does the Potency read?
**A.** The Potency was “inactive”.

**Q.** With C=CC[C@@H](CC(=O)N[C@H](CO)Cc1ccccc1)C(=O)N[C@H](C)COC(=O)[C@@H](CC=C)CC(=O)OC(C)(C)C as the compound, how does the Potency read?
**A.** Its Potency is inconclusive [inhibitor, single point].

**Q.** For COc1cccc2cc(C(=O)N(C)C3CCN(C)CC3)c(=O)oc12, which Potency is on record?
**A.** The Potency was “inactive”.

**Q.** Which Potency does the source give for Cc1cccc(-c2cnc3cccnn23)c1 here?
**A.** The Potency was inconclusive [inhibitor, partial curve].

Source: PubChem BioAssay AID686978 (National Center for Advancing Translational Sciences (NCATS), 2013)
